Out of some 410,000 compounds screened, about 6,400 (1.6%) were called active. This list was built around the results that the source calls inconclusive (neither active nor inactive); the mix of calls is not that of the screen. The call rests on the fitted dose curve; in most records, active means well fitted inhibition curve with a large enough effect; inconclusive means small, poorly fitted or top-dose-only effect; inactive means no such curve, though single readings can be large or run the other way. Potencies of inconclusive entries are left out as doubtful fits.
target: Glucagon-like peptide 1 receptor (Homo sapiens) (UniProt P43220); assay: qHTS of GLP-1 Receptor Inverse Agonists (Inhibition Mode); details: HEK293 GLP-1R CRE-luciferase, luminescence, 24 h, GLP-1R form is constitutively active; activity change, negative = inhibition: at 38.3 µM (top of the series) unless noted; further: nearly all actives have a fitted effect of over 55% in size
Summary of the method: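 Seeding at 200 cells/uL, 12 h culture, 24 hr compound treatment, then luciferase reagent and a luminescence read; cells are HEK293 stably expressing a constitutively active GLP-1R plus cAMP-responsive luciferase.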
On the % scale 0 is the no-effect control and ±100 the full control effect; potency means the concentration at half of the fitted maximal effect; tags describe the fitted curve by direction and shape.

Chain of UniProt P43220 (P43220 whole entry, looked up): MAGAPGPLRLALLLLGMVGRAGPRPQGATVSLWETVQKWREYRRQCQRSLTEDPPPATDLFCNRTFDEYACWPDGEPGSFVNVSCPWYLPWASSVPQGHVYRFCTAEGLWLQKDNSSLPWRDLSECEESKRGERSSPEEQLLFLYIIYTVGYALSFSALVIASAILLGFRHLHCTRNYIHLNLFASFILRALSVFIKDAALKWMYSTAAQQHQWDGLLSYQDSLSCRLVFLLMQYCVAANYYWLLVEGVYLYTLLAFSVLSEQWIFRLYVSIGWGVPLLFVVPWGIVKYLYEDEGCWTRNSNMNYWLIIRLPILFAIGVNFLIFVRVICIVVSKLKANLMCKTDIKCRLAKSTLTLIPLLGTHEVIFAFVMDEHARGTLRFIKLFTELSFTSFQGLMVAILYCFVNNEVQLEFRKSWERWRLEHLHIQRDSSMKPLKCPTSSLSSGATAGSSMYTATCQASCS

Compound	Potency	activity change, negative = inhibition
COC(=O)c1c(-c2ccc(C)cc2)csc1NC(=S)NC(=O)c1ccc(F)cc1	inactive	–
N/C(=N\OC(=O)C12CC3CC(CC(C3)C1)C2)c1ccccc1	inconclusive [inhibitor, single point]	–
O=S(=O)(c1ccc(Cl)cc1)N1CCN(C(=S)Nc2ccccc2F)CC1	inconclusive [inhibitor, partial curve]	–
O=C(c1cc(Cl)ccc1Cl)N1CCc2ccccc21	inconclusive [inhibitor, partial curve, poor fit]	–
CCc1nc2ccc(C(=O)N3CCN(c4cccc(Cl)c4)CC3)cc2nc1CC	inconclusive [inhibitor, partial curve, poor fit]	–
O=C(CCC(=O)N1CCOc2ccc(Cl)cc21)NCCCN1CCN(Cc2ccccc2)CC1	inconclusive [inhibitor, single point]	–
CCOC(=O)C1(CC2CCCCO2)CCN(Cc2c(C)cc(C)cc2-n2cccn2)CC1 (centres undefined)	inconclusive [inhibitor, partial curve, poor fit]	–
COC(=O)c1cc2c(-c3ccccc3)c(C)c3ccccn3c-2c1C(=O)OC	inconclusive [inhibitor, single point]	–
Cc1ccc(-c2nc3ccc(Br)cn3c2Cc2cccc(F)c2)cc1	inconclusive [inhibitor, partial curve, poor fit]	–
N#CC1(Nc2ccc(Br)cc2)CCCC1	inactive	–
O=C(Cc1ccccc1)NC(NCCc1ccccc1)C(Cl)(Cl)Cl (centres undefined)	inconclusive [inhibitor, partial curve, poor fit]	–
CCCCNC(=O)C1(C)CCCCN1Cc1ccc2ccccc2c1 (centres undefined)	inconclusive [inhibitor, partial curve]	–
COc1cc(NC(C)CCCN)c2ncccc2c1Oc1ccccc1 (centres undefined)	inconclusive [inhibitor, single point]	–
Cc1ccc(Cn2nc(C)c(C(=O)NCC(c3ccc(F)cc3)N3CCOCC3)c2Cl)cc1 (centres undefined)	inconclusive [inhibitor, single point]	–
O=C(Nc1cccc(C(=O)NC2CCCCC2)c1)c1ccccc1	inconclusive [inhibitor, partial curve, poor fit]	–
COc1ccc(NC(=O)CN(C)C(=O)c2ccccc2Sc2ncnc3sc(C)c(C)c23)cc1	inconclusive [inhibitor, single point]	–
CCC(=O)N(CCC(Cc1ccccc1)c1ccco1)Cc1ccco1 (centres undefined)	inconclusive [inhibitor, single point]	–
CC(Nc1nc(-c2ccc(F)cc2)cs1)c1nc2cc(C(F)(F)F)ccc2n1CCOCCO (centres undefined)	inactive	–
COc1ccc2[nH]c(-c3cccc(F)c3)cc(=O)c2c1	inactive	–
O=[N+]([O-])c1ccc(N/N=C/c2cn(Cc3ccc(F)cc3)c3ccccc23)nc1	inconclusive [inhibitor, single point]	–
CCOc1nc(NCCO)nc(NCCC2=CCCCC2)n1	inconclusive [inhibitor, partial curve]	–
CCOC(=O)Cc1csc(N/N=C\c2ccccc2OC)n1	–	inconclusive: -31.2% [inhibitor]

Compound	Potency	activity change, negative = inhibition
CCn1c(SCC(N)=O)nc2sc3c(c2c1=O)CCCC3	inactive	–
COc1ccc(NC(=S)N2CCC(Cc3ccccc3)CC2)cc1	inconclusive [inhibitor, partial curve]	–
Cc1ccc(Cn2cccc(NC(=O)NC3CCCCC3)c2=O)cc1	inconclusive [inhibitor, single point]	–
COc1ccc(-c2nnc(SCC(C)C)o2)cc1	inconclusive [inhibitor, single point]	–
O=S1(=O)CCN(C2CCCCCCCCCCC2)CC1	inactive	–
NC(=O)CC(NC(=O)Cc1ccc(Br)cc1)c1ccc(NC2CC3CCC2C3)c([N+](=O)[O-])c1 (centres undefined)	inconclusive [inhibitor, single point]	–
COc1ccc(Cc2nc(-c3ccc(-n4cccc4)cc3)no2)cc1OC	inconclusive [inhibitor, single point]	–
CCc1cccc(NC(=O)C(Cc2ccccc2)NS(=O)(=O)c2cccs2)c1 (centres undefined)	inconclusive [inhibitor, single point]	–
CCN1c2ccccc2-c2nc3ccccc3n2C1c1ccncc1 (centres undefined)	inconclusive [inhibitor, partial curve, poor fit]	–
Cc1cc(C)c2cc(C#N)c(N3CCCN(C(=S)NCCCN(C)C)CC3)nc2c1	inconclusive [inhibitor, full curve, poor fit]	–
O=C(c1ccco1)N1CCN(C(c2ccc(Cl)cc2)c2nnnn2Cc2ccccc2)CC1 (centres undefined)	inconclusive [inhibitor, partial curve, poor fit]	–
Cc1onc(-c2ccccc2Cl)c1C(=O)N1CCOC12CCCCC2	inconclusive [inhibitor, partial curve, poor fit]	–
CC(=O)c1ccc(Nc2cc(C)nc3nc(Cc4ccccc4)nn23)cc1	inactive	–
NS(=O)(=O)c1ccc(CCNCC(=O)N2CCC(Cc3ccccc3)CC2)cc1	inconclusive [inhibitor, full curve]	–
O=C(COc1ccccc1Cl)N1N=C(c2cccs2)CC1c1ccco1 (centres undefined)	inconclusive [inhibitor, single point]	–
CC(Oc1ccccc1Cl)C(=O)Nc1ccc(S(=O)(=O)N2CCCC2)cc1 (centres undefined)	inconclusive [inhibitor, single point]	–
O=C(O)CC(C(=O)O)N1C(=O)/C(=C/c2ccc(-c3nc4ccccc4s3)o2)SC1=S (centres undefined)	inactive	–
COc1ccc(NC(=O)CN2CCC(C(=O)c3ccc(F)cc3)CC2)c(OC)c1	inconclusive [inhibitor, partial curve, poor fit]	–
O=[N+]([O-])c1ccc(N=Nc2ncc[nH]2)cc1	inconclusive [inhibitor, single point]	–
COC(=O)C1=CN(C(C)C)C=C(C(=O)OC)C1c1cc2c(cc1Br)OCO2	inconclusive [inhibitor, full curve, poor fit]	–
Cc1ccc(C)c(N(C(=O)CCC(=O)Nc2cc(C)on2)C(C(=O)NC2CCCC2)c2ccco2)c1 (centres undefined)	inconclusive [inhibitor, single point]	–
CN(C)/C=N/C1=C(C#N)C(c2ccc(Br)cc2)c2ccc3ccccc3c2O1 (centres undefined)	inconclusive [inhibitor, full curve, poor fit]	–

Compound	Potency	activity change, negative = inhibition
CC(c1ccccn1)N(C)C(=O)c1ccc2nc(Cc3cccc(Cl)c3)oc2c1 (centres undefined)	inconclusive [inhibitor, single point]	–
CC1CC(C)(C)Nc2ccc(OC(=O)c3ccco3)cc21 (centres undefined)	inconclusive [inhibitor, single point]	–
CN1CCN(c2ccc([N+](=O)[O-])cc2C(=O)c2ccc(Br)cc2)CC1	inconclusive [inhibitor, single point]	–
CCOC(=O)C1=C(N)Oc2cc(O)ccc2C1c1ccc(C)cc1 (centres undefined)	inconclusive [inhibitor, single point]	–
NS(=O)(=O)c1ccc(CCNC(=O)c2ccc(C#CC3(O)CCCCC3)cc2)cc1	inconclusive [inhibitor, single point]	–
Oc1cccc(C(O)CNCc2ccc(-c3ccccc3)cc2)c1 (centres undefined)	inconclusive [inhibitor, single point]	–
COc1ccc(NC(=O)Nc2cc(C)ccc2OC(F)F)c(OC)c1	inconclusive [inhibitor, single point]	–
O=C(NCCCc1ccccc1)c1ccc(F)cc1	inconclusive [inhibitor, partial curve, poor fit]	–
Cc1ccc(C)c(N2CCN(CCCNC(=O)c3ccc4nc(N5CCC(C)CC5)sc4c3)CC2)c1	inconclusive [inhibitor, full curve, poor fit]	–
OC(CNCc1cccnc1)COc1ccc2ccccc2c1 (centres undefined)	inconclusive [inhibitor, partial curve, poor fit]	–
COc1cc(/C=C/c2cc[n+](C)cc2)ccc1OCC(=O)Nc1ccc(Cl)c(Cl)c1	inconclusive [inhibitor, partial curve]	–
COc1cccc(Cn2c(C(C)n3c(-c4cnccn4)nc4ccccc43)nc3ccccc32)c1 (centres undefined)	inconclusive [inhibitor, single point]	–
N#C/C(=C/c1ccc(N2CCCCCC2)o1)c1ccc(Cl)cc1	inconclusive [inhibitor, single point]	–
Cc1cc(C)cc(OCC(=O)NNC(=O)CC(C)c2ccccc2)c1 (centres undefined)	inconclusive [inhibitor, partial curve, poor fit]	–
N#C/C(=C\c1ccc(F)cc1)c1nc(-c2ccc(-c3ccccc3)cc2)cs1	inactive	–
C=CC(=O)Nc1cccc(Oc2cc(Cl)nc3[nH]ccc23)c1	inconclusive [inhibitor, partial curve, poor fit]	–
COc1ccc2cc(-c3ccccc3)c(=O)oc2c1	inactive	–
COC(=O)c1ccc(S(=O)(=O)N2CCc3ccccc32)cc1	inconclusive [inhibitor, partial curve, poor fit]	–
CCN(CC)Cc1cc(O)c(CN(CC)CC)cc1O	inactive	–
CCCC1=Nc2cc(C(=O)NC3CCCCC3)ccc2Sc2ccc(C)cc21	active: 0.794 µM	–

Source: PubChem BioAssay AID624417 (National Center for Advancing Translational Sciences (NCATS), 2012)
